Test results reported in publication PMC3424240.
These are yes or no findings as the source states them, for the method shown. In cells and extracts the contact can be indirect. Some binding calls cover weakened binding; strength is not graded here. For some of these results: Sequences can lack the tags named with a protein.

Chains of the proteins cited; added tags and fusions are not shown.
UniProt Q8CFT2: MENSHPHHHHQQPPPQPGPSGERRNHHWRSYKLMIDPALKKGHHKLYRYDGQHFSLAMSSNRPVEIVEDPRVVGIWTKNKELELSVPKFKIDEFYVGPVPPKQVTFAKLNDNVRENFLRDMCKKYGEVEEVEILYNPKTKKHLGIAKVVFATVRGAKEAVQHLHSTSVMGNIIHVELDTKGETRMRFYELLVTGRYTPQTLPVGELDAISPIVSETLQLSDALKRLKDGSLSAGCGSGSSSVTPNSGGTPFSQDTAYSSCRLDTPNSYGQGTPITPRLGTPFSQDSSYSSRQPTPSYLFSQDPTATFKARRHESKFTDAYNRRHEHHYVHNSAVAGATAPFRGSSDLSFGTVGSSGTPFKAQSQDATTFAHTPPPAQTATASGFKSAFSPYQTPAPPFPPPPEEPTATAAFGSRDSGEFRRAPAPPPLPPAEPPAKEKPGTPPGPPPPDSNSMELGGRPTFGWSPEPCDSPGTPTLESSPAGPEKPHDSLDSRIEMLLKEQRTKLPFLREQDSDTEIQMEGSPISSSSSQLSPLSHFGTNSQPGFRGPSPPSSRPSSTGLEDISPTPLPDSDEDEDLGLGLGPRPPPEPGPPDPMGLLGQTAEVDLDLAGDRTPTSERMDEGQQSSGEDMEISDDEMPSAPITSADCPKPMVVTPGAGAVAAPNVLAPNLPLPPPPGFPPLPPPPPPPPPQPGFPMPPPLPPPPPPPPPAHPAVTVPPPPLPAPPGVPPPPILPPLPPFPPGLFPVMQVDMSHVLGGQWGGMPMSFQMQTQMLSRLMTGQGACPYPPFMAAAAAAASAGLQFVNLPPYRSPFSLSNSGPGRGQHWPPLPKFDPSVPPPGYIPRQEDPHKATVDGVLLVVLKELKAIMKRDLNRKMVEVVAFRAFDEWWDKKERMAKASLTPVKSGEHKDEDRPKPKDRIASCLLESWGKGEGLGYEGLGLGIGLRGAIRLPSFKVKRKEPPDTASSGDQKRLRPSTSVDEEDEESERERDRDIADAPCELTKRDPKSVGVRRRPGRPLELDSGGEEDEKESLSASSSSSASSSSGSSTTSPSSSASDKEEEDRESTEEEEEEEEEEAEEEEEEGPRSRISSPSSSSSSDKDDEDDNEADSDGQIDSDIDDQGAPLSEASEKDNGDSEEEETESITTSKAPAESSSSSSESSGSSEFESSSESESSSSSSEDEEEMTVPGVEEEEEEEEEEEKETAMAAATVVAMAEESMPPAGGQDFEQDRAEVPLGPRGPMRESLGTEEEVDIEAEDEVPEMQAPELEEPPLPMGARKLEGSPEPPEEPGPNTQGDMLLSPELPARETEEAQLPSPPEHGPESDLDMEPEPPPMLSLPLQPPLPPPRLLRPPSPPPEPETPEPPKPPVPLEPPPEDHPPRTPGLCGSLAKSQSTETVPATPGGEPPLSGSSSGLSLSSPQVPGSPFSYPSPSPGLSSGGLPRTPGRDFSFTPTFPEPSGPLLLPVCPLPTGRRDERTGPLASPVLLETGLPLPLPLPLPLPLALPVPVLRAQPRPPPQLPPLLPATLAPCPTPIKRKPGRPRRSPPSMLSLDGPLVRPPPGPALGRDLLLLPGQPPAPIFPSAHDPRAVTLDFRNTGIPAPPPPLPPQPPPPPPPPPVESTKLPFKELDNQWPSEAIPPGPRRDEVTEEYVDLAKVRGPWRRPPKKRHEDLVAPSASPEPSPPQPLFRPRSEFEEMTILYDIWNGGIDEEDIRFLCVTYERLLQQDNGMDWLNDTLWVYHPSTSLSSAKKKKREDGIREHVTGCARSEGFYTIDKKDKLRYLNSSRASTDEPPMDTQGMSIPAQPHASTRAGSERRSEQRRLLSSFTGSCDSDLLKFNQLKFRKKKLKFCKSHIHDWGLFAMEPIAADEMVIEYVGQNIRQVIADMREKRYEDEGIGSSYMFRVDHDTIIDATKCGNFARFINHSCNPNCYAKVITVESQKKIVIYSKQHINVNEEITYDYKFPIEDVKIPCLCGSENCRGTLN

T1: FLAG-Setd1b fragment (1–867 aa) (human) (UniProt Q9UPS6)
T1 sequence: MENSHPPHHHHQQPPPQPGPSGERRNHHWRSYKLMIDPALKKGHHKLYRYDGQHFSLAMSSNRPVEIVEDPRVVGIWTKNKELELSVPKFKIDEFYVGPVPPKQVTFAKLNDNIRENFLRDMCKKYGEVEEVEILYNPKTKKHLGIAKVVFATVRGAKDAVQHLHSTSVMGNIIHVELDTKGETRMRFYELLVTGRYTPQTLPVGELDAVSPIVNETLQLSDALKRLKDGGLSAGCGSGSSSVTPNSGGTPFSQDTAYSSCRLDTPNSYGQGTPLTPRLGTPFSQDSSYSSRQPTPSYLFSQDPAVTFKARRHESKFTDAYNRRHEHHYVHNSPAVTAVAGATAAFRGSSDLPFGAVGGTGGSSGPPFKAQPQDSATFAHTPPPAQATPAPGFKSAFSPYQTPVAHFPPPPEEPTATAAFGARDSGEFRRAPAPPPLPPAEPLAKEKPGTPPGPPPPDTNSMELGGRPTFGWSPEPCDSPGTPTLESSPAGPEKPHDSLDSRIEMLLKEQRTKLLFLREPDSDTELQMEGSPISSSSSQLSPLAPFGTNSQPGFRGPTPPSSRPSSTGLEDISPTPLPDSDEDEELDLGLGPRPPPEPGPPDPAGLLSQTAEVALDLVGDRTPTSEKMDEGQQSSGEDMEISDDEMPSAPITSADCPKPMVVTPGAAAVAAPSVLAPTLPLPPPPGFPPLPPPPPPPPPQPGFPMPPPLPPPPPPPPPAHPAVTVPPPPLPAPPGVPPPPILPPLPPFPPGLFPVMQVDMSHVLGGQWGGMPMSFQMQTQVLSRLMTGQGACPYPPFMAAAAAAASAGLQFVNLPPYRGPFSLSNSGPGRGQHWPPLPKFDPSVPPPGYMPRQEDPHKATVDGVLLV

T2: FLAG-Setd1b (aa 225–1671) (human) (UniProt Q9UPS6)
T2 sequence: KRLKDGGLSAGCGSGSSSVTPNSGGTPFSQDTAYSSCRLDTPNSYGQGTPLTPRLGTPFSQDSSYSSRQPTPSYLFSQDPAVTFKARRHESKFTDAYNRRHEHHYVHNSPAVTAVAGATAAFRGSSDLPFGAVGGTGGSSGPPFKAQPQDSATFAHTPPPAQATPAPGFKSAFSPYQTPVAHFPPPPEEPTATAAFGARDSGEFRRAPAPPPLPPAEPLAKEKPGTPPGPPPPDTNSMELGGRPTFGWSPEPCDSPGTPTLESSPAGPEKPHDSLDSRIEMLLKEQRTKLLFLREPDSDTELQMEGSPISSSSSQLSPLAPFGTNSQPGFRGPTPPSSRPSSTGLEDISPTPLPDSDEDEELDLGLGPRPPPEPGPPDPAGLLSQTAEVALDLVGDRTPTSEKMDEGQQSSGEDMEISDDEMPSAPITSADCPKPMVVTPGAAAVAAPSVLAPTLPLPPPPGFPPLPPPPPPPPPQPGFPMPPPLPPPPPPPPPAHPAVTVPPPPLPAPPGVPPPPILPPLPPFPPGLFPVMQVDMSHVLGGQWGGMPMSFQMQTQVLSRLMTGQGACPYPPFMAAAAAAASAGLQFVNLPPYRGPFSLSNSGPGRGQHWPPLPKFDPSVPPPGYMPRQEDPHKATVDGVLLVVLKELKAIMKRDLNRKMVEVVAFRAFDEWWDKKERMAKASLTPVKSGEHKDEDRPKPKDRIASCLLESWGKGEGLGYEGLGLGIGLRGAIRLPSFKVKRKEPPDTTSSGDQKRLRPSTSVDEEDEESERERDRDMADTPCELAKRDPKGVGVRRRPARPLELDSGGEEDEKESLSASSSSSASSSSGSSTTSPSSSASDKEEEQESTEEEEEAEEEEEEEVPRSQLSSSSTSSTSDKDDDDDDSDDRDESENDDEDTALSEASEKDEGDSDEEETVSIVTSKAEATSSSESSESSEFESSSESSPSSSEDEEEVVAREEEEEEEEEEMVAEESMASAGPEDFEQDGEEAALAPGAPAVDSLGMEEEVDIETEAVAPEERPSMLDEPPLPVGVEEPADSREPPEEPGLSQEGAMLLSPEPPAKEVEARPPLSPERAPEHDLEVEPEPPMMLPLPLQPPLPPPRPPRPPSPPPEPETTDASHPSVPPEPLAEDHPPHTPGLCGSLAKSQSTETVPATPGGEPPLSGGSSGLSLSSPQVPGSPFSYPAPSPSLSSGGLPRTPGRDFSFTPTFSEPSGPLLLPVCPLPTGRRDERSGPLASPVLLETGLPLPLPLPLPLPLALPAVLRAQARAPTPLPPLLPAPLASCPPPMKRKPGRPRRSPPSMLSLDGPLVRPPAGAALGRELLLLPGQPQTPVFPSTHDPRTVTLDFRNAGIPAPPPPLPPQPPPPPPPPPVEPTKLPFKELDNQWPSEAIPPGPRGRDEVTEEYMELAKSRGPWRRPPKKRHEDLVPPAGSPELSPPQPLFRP

T3: FLAG-tagged Setd1b 225 to 826 aa region (human) (UniProt Q9UPS6)
T3 sequence: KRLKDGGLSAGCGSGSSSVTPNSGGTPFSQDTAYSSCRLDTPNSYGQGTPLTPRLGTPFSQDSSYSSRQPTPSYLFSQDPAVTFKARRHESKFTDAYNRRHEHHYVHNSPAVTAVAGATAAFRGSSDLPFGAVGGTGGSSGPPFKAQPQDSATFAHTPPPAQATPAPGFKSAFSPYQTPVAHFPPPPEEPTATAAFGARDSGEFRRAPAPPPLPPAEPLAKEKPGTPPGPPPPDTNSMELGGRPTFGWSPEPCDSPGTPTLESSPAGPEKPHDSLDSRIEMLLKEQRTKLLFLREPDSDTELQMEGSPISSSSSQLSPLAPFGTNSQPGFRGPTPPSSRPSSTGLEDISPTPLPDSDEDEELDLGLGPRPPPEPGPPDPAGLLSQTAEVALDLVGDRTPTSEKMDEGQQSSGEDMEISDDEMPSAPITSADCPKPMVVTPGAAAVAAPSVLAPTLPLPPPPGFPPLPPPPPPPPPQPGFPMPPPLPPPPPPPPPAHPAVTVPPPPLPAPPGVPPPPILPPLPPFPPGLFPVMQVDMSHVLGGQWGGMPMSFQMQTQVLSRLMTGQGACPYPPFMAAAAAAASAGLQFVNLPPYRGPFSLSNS

T4: Rbm15 of murine 6133 megakaryoblastic leukemic cells (mouse (endogenous in 6133)) (UniProt Q0VBL3)
T4 sequence: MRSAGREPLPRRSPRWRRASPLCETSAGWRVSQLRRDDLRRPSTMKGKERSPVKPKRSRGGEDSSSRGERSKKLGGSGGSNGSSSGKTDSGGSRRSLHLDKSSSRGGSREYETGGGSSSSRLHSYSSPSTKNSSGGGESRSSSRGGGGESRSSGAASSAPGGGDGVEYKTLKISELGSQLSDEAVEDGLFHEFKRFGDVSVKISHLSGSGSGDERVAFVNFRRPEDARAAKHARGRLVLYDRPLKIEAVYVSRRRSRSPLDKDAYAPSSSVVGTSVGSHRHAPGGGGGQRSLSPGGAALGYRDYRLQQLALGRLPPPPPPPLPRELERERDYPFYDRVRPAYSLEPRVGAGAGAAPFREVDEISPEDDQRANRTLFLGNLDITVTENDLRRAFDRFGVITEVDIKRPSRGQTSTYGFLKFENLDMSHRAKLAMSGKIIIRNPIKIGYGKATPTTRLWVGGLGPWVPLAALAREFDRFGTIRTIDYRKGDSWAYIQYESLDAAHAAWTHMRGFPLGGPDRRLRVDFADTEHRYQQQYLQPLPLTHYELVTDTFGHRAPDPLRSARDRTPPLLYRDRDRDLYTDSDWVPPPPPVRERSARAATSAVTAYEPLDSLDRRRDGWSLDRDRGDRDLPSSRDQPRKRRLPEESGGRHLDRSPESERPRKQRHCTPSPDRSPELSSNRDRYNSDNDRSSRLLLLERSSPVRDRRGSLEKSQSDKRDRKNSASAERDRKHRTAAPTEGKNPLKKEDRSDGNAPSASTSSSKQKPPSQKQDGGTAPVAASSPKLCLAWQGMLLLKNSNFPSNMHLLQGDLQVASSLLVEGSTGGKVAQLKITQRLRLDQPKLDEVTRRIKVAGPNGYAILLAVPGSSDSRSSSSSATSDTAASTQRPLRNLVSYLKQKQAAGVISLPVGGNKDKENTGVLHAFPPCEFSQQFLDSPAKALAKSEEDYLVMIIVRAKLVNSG


Key:
[1] = biological target: T1, FLAG-Setd1b fragment (1–867 aa) (human); test: co-IP; FLAG immunoprecipitation from whole cell extracts of transiently transfected HEK293 cells, Western blotting for endogenous partners
[2] = biological target: endogenous Setd1b (human (endogenous in HEK293)) (UniProt Q9UPS6); test: co-IP; immunoprecipitation with antisera against Setd1b or Rbm15 from nuclear extracts of HEK293 cells (endogenous proteins), Western blotting
[3] = biological target: T2, FLAG-Setd1b (aa 225–1671) (human); test: co-IP; FLAG immunoprecipitation from nuclear extracts of transiently transfected HEK293 cells, Western blotting for endogenous partners
[4] = biological target: FLAG-tagged full-length Setd1b (human) (UniProt Q9UPS6); test: as above
[5] = biological target: T3, FLAG-tagged Setd1b 225 to 826 aa region (human); test: co-IP; FLAG immunoprecipitation (FLAG-IgG agarose) from nuclear extracts of inducible T-REx HEK293 stable lines, Western blotting for endogenous partners
[6] = biological target: T4, Rbm15 of murine 6133 megakaryoblastic leukemic cells (mouse (endogenous in 6133)); test: co-IP; immunoprecipitation with antisera against Setd1b or Rbm15 from whole cell extracts of murine 6133 megakaryoblastic leukemic cells, Western blotting
[7] = biological target: Setd1b of murine 6133 megakaryoblastic leukemic cells (mouse (endogenous in 6133)) (UniProt Q8CFT2); test: as above

Binder | binding [1] | binding [2] | binding [3] | binding [4] | binding [5] | binding [6] | binding [7]
endogenous Rbm15 (protein, UniProt Q96T37 1-977) MRTAGRDPVPRRSPRWRRAVPLCETSAGRRVTQLRGDDLRRPATMKGKERSPVKAKRSRGGEDSTSRGERSKKLGGSGGSNGSSSGKTDSGGGSRRSLHLDKSSSRGGSREYDTGGGSSSSRLHSYSSPSTKNSSGGGESRSSSRGGGGESRSSGAASSAPGGGDGAEYKTLKISELGSQLSDEAVEDGLFHEFKRFGDVSVKISHLSGSGSGDERVAFVNFRRPEDARAAKHARGRLVLYDRPLKIEAVYVSRRRSRSPLDKDTYPPSASVVGASVGGHRHPPGGGGGQRSLSPGGAALGYRDYRLQQLALGRLPPPPPPPLPRDLERERDYPFYERVRPAYSLEPRVGAGAGAAPFREVDEISPEDDQRANRTLFLGNLDITVTESDLRRAFDRFGVITEVDIKRPSRGQTSTYGFLKFENLDMSHRAKLAMSGKIIIRNPIKIGYGKATPTTRLWVGGLGPWVPLAALAREFDRFGTIRTIDYRKGDSWAYIQYESLDAAHAAWTHMRGFPLGGPDRRLRVDFADTEHRYQQQYLQPLPLTHYELVTDAFGHRAPDPLRGARDRTPPLLYRDRDRDLYPDSDWVPPPPPVRERSTRTAATSVPAYEPLDSLDRRRDGWSLDRDRGDRDLPSSRDQPRKRRLPEESGGRHLDRSPESDRPRKRHCAPSPDRSPELSSSRDRYNSDNDRSSRLLLERPSPIRDRRGSLEKSQGDKRDRKNSASAERDRKHRTTAPTEGKSPLKKEDRSDGSAPSTSTASSKLKSPSQKQDGGTAPVASASPKLCLAWQGMLLLKNSNFPSNMHLLQGDLQVASSLLVEGSTGGKVAQLKITQRLRLDQPKLDEVTRRIKVAGPNGYAILLAVPGSSDSRSSSSSAASDTATSTQRPLRNLVSYLKQKQAAGVISLPVGGNKDKENTGVLHAFPPCEFSQQFLDSPAKALAKSEEDYLVMIIVRGFGFQIGVRYENKKRENLALTLL | binds | binds | binds | binds | binds | – | –
Mkl1 of murine 6133 megakaryoblastic leukemic cells (protein, UniProt Q8K4J6 1-964) MTLLEPEMLMMAVQSVLQLKLQQRRTREELVSQGIMPPLKSPAAFHEQRRSLERARTEDYLKRKIRSRPERAELVRMHILEETSAEPSLQAKQLKLKRARLADDLNEKIAQRPGPMELVEKNILPVESSLKEAIIVGQVNYPKVADSSSFDEDSSDALSPEQPASHESQGSVPSPLESRVSDPLPSATSISPTQVLSQLPMAPDPGETLFLAEQPPLPPAPLLPPSLANGSIVPTAKPAPTLIKQSQPKSASEKSQRSKKAKELKPKVKKLKYHQYIPPDQKQDKGAPAMDSSYAKILQQQQLFLQLQILNQQQQQQQQQHYNYQAILPAPPKPSAETPGSSAPTPSRSLSTSSSPSSGTPGPSGLARQSSTALAAKPGALPANLDDMKVAELKQELKLRSLPVSGTKTELIERLRAYQDQVSPAPGAPKAPATTSVLSKAGEVVVAFPAALLSTGSALVTAGLAPAEMVVATVTSNGMVKFGSTGSTPPVSPTPSERSLLSTGDENSTPGDAFGEMVTSPLTQLTLQASPLQIVKEEGARAASCCLSPGARAELEGLDKDQMLQEKDKQIEELTRMLQQKQQLVELLRLQLEQQKRAQQPAPASSPVKRESGFSSCQLSCQPQGSAHAFGSGLVVPTTNHGDTQAPAPESPPVVVKQEAGPPEPDLAPSSQLLLGSQGTSFLKRVSPPTLVTDSTGTHLILTVTNKSADGPGLPAGSPQQPLSQPGSPAPGPPAQMDLEHPPQPPFATPTSLLKKEPPGYEETVTQQPKQQENGSSSQHMDDLFDILIQSGEISADFKEPPSLPGKEKSPPAAAAYGPPLTPQPSPLSELPQAAPPPGSPTLPGRLEDFLESSTGLPLLTSGHEGPEPLSLIDDLHSQMLSSSAILDHPPSPMDTSELHFAPEPSSGMGLDLAVGHLDSMDWLELSSGGPVLSLAPLSTAAPSLFSMDFLDGHDLQLHWDSCL | – | – | – | – | – | no binding | no binding
